# Data reported in PubChem BioAssay (Tox21).
# “And” between values parts separate entries of the source, which are not always exact repeats. Identical values can stand only once. This list was built around the results that the source calls inconclusive (neither active nor inactive); the mix of calls is not that of the screen. For some of these results: Where the call is inconclusive, the potency comes from a doubtful curve fit. The source made the active and inactive calls. Unless noted, calls come from the whole dose curve; as a rule, active = well fitted curve in the direction sought with a large enough effect in the repeat runs; inconclusive = weak or mixed curves; inactive = no such curve, though single readings can be large; an effect the other way counts as inactive or inconclusive.
# What was measured:
# [1] = target: Luciferin 4-monooxygenase (Photinus pyralis) (UniProt P08659); assay: qHTS assay to identify small molecule inhibitors of firefly luciferase (AID 1224835); note: nearly all actives have a fitted effect of over 25% in size; note: potency is the fitted concentration of half-maximal effect
# Method in brief: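 Inhibition of purified Photinus luciferase is measured by luminescence. Substrate levels (D-luciferin, ATP) sit at their KM values. Each compound is tested in a concentration series.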
# [2] = target: Nuclear receptor subfamily 1 group I member 3 (Homo sapiens) (UniProt Q14994); assay: qHTS assay to identify small molecule antagonists of the constitutive androstane receptor (CAR) signaling pathway (AID 1224838);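 note: HepG2 cells stably expressing hCAR with CYP2B6 luciferase reporter stimulated by CITCO; % is set by controls: 0 for no effect and ±100 for the full control effect; nearly all actives have a fitted effect of over 40% in size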
# Method in brief: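 Human hepatoma HepG2 cells expressing hCAR and a CYP2B6 promoter (2.2 kb) luciferase construct; compound titration (15 points) with 50 nM CITCO final, 24 h at 37 C/5% CO2; luminescence via ONE-Glo after 30 min at room temperature.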
# [3] = qHTS assay to identify small molecule antagonists of the estrogen related receptor signaling pathway with the pleiotropic PPARgamma coactivator (PGC) from Tox21 10K library (AID 1224841; call rule not given here; note: potency is the fitted concentration of half-maximal effect; actives are mostly falling curves and most rising ones were filed inactive; nearly all actives have a fitted effect of over 50% in size)
# Method in brief: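 Test chemicals dissolved in DMSO were applied to pre-incubated (6 h) PGC/ERR cells at 2,000 cells/well for an 18 h, 37 C treatment; reporter luminescence was then read using One-Glo.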
# [4] = A CellTox Green Cytotoxicity Assay to monitor cytotoxicity in HEK293 cells - 0 hour (AID 1224869); note: potency is the fitted concentration of half-maximal effect; nearly all actives have a fitted effect of over 50% in size
# Method in brief: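 Tox21 screen in HEK293: membrane-impermeant cyanine dye fluoresces on binding dead-cell DNA; compound pinned 5 h post-seeding, plates held at 37 C, signal read repeatedly through 40 h.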
# [5] = qHTS assay to identify small molecule antagonists of the estrogen related receptor (ERR) signaling pathway from Tox21 library - cell viability counter screen (AID 1224834); note: potency is the fitted concentration of half-maximal effect; nearly all actives have a fitted effect of over 30% in size
# Method in brief: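 Seeded ERR cells were rested 6 h at 37 C/5% CO2 before compounds, positive and negative controls or DMSO were added. Incubation continued for 17.5 h, and viability was then quantified by CellTiter-Fluor fluorescence.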
# [6] = qHTS RealTime-Glo MT Cell Viability Assay in HepG2 cells - 24 hour (AID 1224867); note: nearly all actives have a fitted effect of over 50% in size; note: potency is the fitted concentration of half-maximal effect
# Method in brief: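 Real-time, nonlytic viability: 600 HepG2 cells/well mixed with NanoLuc enzyme plus prosubstrate; 5 h settle, compound (DMSO) added by pintool; luminescence monitored over 40 h at 37 C.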
# [7] = qHTS assay to identify small molecule antagonists of the estrogen related receptor (ERR) signaling pathway from Tox21 library (AID 1224848); note: potency is the fitted concentration of half-maximal effect; nearly all actives have a fitted effect of over 50% in size
# Method in brief: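 ERR cell line, 2,000 cells/well. 6 h settle, then compound (DMSO) added; 18 h at 37 C; ONE-Glo luminescence after 30 min RT.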
# [8] = qHTS RealTime-Glo MT Cell Viability Assay in HEK293 cells - 32 hour (AID 1224868)
# Method in brief: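 Cells + reagent dispensed (600 cells/well, HEK293) → 5 h at 37 C/5% CO2 → 23 nL compound in DMSO pinned → 40 h at 37 C → luminescence read at 0, 8, 16, 24, 32, 40 h.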
# [9] = qHTS assay to identify small molecule agonists of the hypoxia (HIF-1) signaling pathway (AID 1224846; active = well fitted activation curve with a large enough effect in the signal ratio in the repeat runs, not every such curve was filed as active; inconclusive = weak or mixed curves; the % refers to the signal ratio; note: potency is the fitted concentration of half-maximal effect; for activation: % is set by controls: 0 for no effect and ±100 for the full control effect); conditions: HRE-bla ME-180 cells, beta-lactamase ratio, 17 h; activation: at 76.8 µM (top of the series) unless noted
# Method in brief: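 Reporter induction in HRE-bla ME-180 cells is taken as agonism: cells sit 5 hrs after plating, receive compounds or DMSO only, incubate 17 hrs at 37C under 5% CO2, and are loaded with CCF4-AM for beta-lactamase FRET measurement.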
# [10] = qHTS assay to identify small molecule agonists of the constitutive androstane receptor (CAR) signaling pathway - cell viability counter screen (AID 1224836); note: % is set by controls: 0 for no effect and ±100 for the full control effect; nearly all actives have a fitted effect of over 45% in size
# Method in brief: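 Fluorescence from CellTiter-Fluor indicates live cells after 23 h exposure. The human hepatoma line expresses hCAR and a CYP2B6-2.2kb reporter. Incubation medium contains 0.75 uM PK11195 (final).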
# [11] = qHTS assay to identify small molecule agonists of the hypoxia (HIF-1) signaling pathway - cell viability counter screen (AID 1224844; calls by dose curve)
# Method in brief: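 HRE-bla ME-180; 0.5% dFBS; cpd 17 h, 37C, 5% CO2; CellTiter-Glo lum., 30 min RT, post-FRET read, same wells.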
# [12] = qHTS assay to identify small molecule agonists of H2AX - cell viability counter screen (AID 1224847; calls by dose curve; note: potency is the fitted concentration of half-maximal effect; nearly all actives have a fitted effect of over 30% in size)
# Method in brief: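 Viability of CHO-K1 (wild type) cells after 3 hr compound exposure was measured by CellTiter-Glo luminescence.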
# [13] = qHTS assay to identify small molecule antagonists of the estrogen related receptor signaling pathway with the pleiotropic PPARgamma coactivator (PGC) from Tox21 10K library - cell viability counter screen (AID 1224840; active = well fitted cell-killing curve with a large enough effect in the repeat runs, not every such curve was filed as active; inconclusive = weak or mixed curves, or effect the other way; inactive = no such curve, though single readings can be large or run the other way; note: potency is the fitted concentration of half-maximal effect; nearly all actives have a fitted effect of over 40% in size)
# Method in brief: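 Seeded PGC/ERR cells (2,000/well, 6 h, 37 C/5% CO2) get compound by pin tool; 17.5 h incubation at 37 C; CellTiter-Fluor added, 30 min, fluorescence measured.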
# [14] = target: Thyrotropin receptor (Homo sapiens) (UniProt P16473); assay: qHTS assay to identify small molecule agonists of the thyroid stimulating hormone receptor (TSHR) signaling pathway (AID 1224843; calls by dose curve; note: % is set by controls: 0 for no effect and ±100 for the full control effect; nearly all actives have a fitted effect of over 45% in size); conditions: TSHR-HEK293 cells, cAMP HTRF, agonist mode, 30 min; activation: at 92.4 µM (top of the series) unless noted
# Method in brief: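 A cell-based cAMP HTRF format was run in TSHR-transfected HEK293 cells, 800 per well. Treatment: 30 min, room temperature. Detection: 1 h with labelled cAMP and anti-cAMP cryptate. Concentration-response over 15 points, three replicates.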
# [15] = qHTS assay to identify small molecule agonists of H2AX (AID 1224845; active = well fitted activation curve with a large enough effect in the signal ratio in the repeat runs, not every such curve was filed as active; inconclusive = weak or mixed curves; the % refers to the signal ratio; note: potency is the fitted concentration of half-maximal effect); conditions: CHO-K1 phospho-H2AX Ser139 HTRF, 3 h; activation (H2AX phosphorylation): at 154 µM (top of the series) unless noted
# Method in brief: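 Phospho-H2AX Ser139 measured by HTRF (ex 320 nm; em 665 and 620 nm) after 24 hr antibody incubation. Compounds, 15 concentrations, 0.76% DMSO, were applied to CHO-K1 cells for 3hr at 37C before lysis.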
# Tags give direction and shape of the fitted curve or compound fluorescence and quenching.
# Chain of UniProt P08659 (P08659 whole entry, looked up): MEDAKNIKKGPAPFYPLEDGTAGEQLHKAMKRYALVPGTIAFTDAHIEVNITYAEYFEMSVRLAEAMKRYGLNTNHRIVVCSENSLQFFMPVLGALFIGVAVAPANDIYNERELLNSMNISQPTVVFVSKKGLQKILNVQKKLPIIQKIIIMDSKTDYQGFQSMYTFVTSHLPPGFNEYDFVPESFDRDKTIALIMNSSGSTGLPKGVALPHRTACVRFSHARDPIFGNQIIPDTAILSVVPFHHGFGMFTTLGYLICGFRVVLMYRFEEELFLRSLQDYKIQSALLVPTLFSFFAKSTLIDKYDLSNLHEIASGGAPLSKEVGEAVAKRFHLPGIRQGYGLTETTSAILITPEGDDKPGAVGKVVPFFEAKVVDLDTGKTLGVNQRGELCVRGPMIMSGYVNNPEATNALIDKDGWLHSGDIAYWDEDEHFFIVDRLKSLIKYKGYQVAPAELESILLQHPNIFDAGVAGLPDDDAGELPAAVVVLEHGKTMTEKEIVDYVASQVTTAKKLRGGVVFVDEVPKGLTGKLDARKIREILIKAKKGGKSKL
# Chain of UniProt Q14994 (Q14994 whole entry, looked up): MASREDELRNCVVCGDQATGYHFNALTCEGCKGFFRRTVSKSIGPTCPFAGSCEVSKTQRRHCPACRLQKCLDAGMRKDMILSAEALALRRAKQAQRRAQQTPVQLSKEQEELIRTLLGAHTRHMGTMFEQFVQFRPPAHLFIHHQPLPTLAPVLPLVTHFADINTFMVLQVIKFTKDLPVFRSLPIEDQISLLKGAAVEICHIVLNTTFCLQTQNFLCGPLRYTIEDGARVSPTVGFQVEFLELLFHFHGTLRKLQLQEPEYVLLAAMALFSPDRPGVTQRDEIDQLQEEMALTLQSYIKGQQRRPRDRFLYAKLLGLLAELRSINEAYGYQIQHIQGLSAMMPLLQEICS
# Chain of UniProt P16473 (P16473 whole entry, looked up): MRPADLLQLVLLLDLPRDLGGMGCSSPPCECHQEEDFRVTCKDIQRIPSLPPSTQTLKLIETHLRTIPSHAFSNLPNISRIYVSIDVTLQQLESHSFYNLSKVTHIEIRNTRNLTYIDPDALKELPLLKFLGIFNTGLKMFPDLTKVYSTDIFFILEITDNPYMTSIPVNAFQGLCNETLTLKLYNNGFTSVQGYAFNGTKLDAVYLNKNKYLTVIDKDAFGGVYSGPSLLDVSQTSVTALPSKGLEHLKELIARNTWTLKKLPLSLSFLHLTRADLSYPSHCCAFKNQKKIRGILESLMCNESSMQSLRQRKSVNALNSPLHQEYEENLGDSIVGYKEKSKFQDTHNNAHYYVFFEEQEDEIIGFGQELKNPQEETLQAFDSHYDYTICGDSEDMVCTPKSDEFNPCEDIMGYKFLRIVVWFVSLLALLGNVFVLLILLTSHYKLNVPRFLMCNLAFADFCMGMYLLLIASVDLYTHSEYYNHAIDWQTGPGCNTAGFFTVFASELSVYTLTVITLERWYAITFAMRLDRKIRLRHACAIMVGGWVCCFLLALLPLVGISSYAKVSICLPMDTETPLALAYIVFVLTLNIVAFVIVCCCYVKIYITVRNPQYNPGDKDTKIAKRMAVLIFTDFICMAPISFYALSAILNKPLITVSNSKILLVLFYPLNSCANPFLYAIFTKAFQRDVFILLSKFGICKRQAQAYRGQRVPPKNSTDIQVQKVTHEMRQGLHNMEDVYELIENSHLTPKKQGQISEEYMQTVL
smiles,measurement,setting,value
C[Si](C)O[Si](C)(C)O[Si](C)(C)O[Si](C)C,Potency,[1],inactive
O=C(Cl)c1ccc(C(=O)Cl)cc1,Potency,[1],"inconclusive: 40 µM [inhibitor] and inconclusive: 63.3 µM [inhibitor, partial curve, poor fit]"
CN(C)CCOCCN(C)C,Potency,[1],"inconclusive: 91 µM [inhibitor, partial curve, poor fit]"
same,Potency,[2],inactive
same,Potency,[3],"inconclusive: 39.3 µM [falling, partial curve, poor fit]"
same,Potency,[4],"inconclusive: 49 µM [activator, partial curve]"
CCCC(C)C,Potency,[5],"inconclusive: 69.3 µM [cytotoxic, single point]"
same,Potency,[6],inactive
CC(=O)c1ccc2c(c1)CCCC2,Potency,[1],"inconclusive: 63.3 µM [inhibitor, partial curve]"
OC[C@H](Cc1cccc(O)c1)[C@H](CO)Cc1cccc(O)c1,Potency,[1],inconclusive: 81.7 µM [inhibitor]
same,Potency,[7],"inconclusive: 55.8 µM [inhibitor, partial curve, poor fit]"
O=C(Nc1ccc2c(c1)Cc1ccccc1-2)C(F)(F)F,Potency,[1],active: 6.33 µM
same,Potency,[8],"inconclusive: 43.6 µM [cytotoxic, partial curve]"
CCN(CC)CC(=O)OCC(=O)[C@@]1(O)CC[C@H]2[C@@H]3CCC4=CC(=O)CC[C@]4(C)[C@H]3[C@@H](O)C[C@@]21C,Potency,[1],inactive
same,Potency,[9],"inconclusive: 0.0674 µM [rising, full curve, poor fit]"
C=CCCCCCCCC,Potency,[10],inactive
C=C(C)C(=O)Nc1ccc(Cl)c(Cl)c1,Potency,[1],"inconclusive: 45.3 µM [inhibitor, partial curve]"
same,Potency,[11],"inconclusive: 21.8 µM [rising, single point]"
same,Potency,[9],inactive
same,Potency,[12],"active: 102 µM and inconclusive: 79.7 µM [cytotoxic, partial curve]"
same,Potency,[8],active: 19.7 µM and active: 21.8 µM
Cc1ccc(C(=O)Nc2ccc(S(=O)(=O)O)c3cc(S(=O)(=O)O)cc(S(=O)(=O)O)c23)cc1NC(=O)c1cccc(NC(=O)Nc2cccc(C(=O)Nc3cc(C(=O)Nc4ccc(S(=O)(=O)O)c5cc(S(=O)(=O)O)cc(S(=O)(=O)O)c45)ccc3C)c2)c1,Potency,[1],"inconclusive: 43.6 µM [inhibitor, single point]"
same,Potency,[4],"inconclusive: 26.8 µM [activator, single point]"
CCN(CC)CCOc1ccc2c(c1)C(=O)c1cc(OCCN(CC)CC)ccc1-2,Potency,[1],"inconclusive: 38.9 µM [inhibitor, partial curve, poor fit]"
same,Potency,[13],"inconclusive: 4.22 µM [cytotoxic, full curve]"
same,activation,[14],inconclusive: -25% [at 42.5 µM]
same,Potency,[15],inconclusive: 55.2 µM
same,Potency,[6],"inconclusive: 26.8 µM [falling, single point]"
